SMILES strings stand for the structures. Some of the results follow. The main result of the screen is listed elsewhere. These columns were measured beside it and carry no call.

Common to all, as to test: Primary Screen for Target Class Profiling of Small Molecule Inhibitors of Methyltransferases
In test [1] the target is Glycine N-methyltransferase (Homo sapiens) (UniProt Q14749). The settings on record: purified enzyme, MTase-Glo SAH luminescence; measured here: GNMT inhibition; at 40 µM; stronger effect = lower value. Put shortly:
(§1)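 Each enzyme was assayed with SAM and its substrate. SAH formation detected by MTase-Glo luminescence; single-point 40 uM screen[…].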

The target of test [2] is Guanidinoacetate N-methyltransferase (Homo sapiens) (UniProt Q14353). The settings on record: purified enzyme, MTase-Glo SAH luminescence; measured here: GAMT inhibition; at 40 µM; stronger effect = lower value. Put shortly: as §1
Test [3] deals with Histamine N-methyltransferase (Homo sapiens) (UniProt P50135). The settings on record: purified enzyme, MTase-Glo SAH luminescence; measured here: HNMT inhibition; at 40 µM; stronger effect = lower value. Put shortly: as §1
Test [4] deals with Nicotinamide N-methyltransferase (Homo sapiens) (UniProt P40261). The settings on record: purified enzyme, MTase-Glo SAH luminescence; measured here: NNMT inhibition; at 40 µM; stronger effect = lower value. Put shortly: as §1
Test [5] concerns the target Phenylethanolamine N-methyltransferase (Homo sapiens) (UniProt P11086). The settings on record: purified enzyme, MTase-Glo SAH luminescence; measured here: PNMT inhibition; at 40 µM; stronger effect = lower value. Put shortly: as §1
% is scaled to controls: 0 for no effect and ±100 for the full control effect.

Take `COc1ccc(OC)c2c1cc1n2CC(C)(C(=O)NC2CCCC2)N(Cc2ccc(C)cc2)C1=O` (stereo not given): the activity change, negative = inhibition in test [1] was 1.92%; in test [2], 0.184%; in test [3], 5.87%; in test [4], 0.514%; in test [5], -1.57%.
With `CCn1nnc2c(N3CCOCC3)nc(-c3ccc(NC(=O)Nc4ccc(C(=O)N5CCN(C)CC5)cc4)cc3)nc21`, the activity change, negative = inhibition in test [1] is -1.67%; in test [2], 9.54%; in test [3], 5.04%; in test [4], -66.5%; in test [5], -2.4%.
With `CCCn1c(=O)c2ccc(C(=O)NC(C)C)cc2n2c(=O)n(Cc3cccc(F)c3)nc12`, the activity change, negative = inhibition in test [1] was -0.708%; in test [2], 3.73%; in test [3] it was 5.9%; in test [4] it was -15.4%; in test [5] it was -0.023%.
Turning to `Cc1ccc(NC(=O)N2CCn3cccc3C2Cc2ccccc2)c(Cl)c1` (stereo not given), the activity change, negative = inhibition in test [1] is 0.63%; in test [2], 0%; in test [3], 6.58%; in test [4], -4.39%; in test [5] it was 0.172%.
On to `CN(CCc1ccccn1)[C@H]1[C@@H]2OC[C@@H](O2)[C@@H](NCc2ccc(-c3ccccc3)cc2)[C@@H]1O`, for which the activity change, negative = inhibition in test [1] was -3.49%; in test [2], -3.16%; in test [3], -0.847%; in test [4], -2.24%; in test [5], -3.73%.
The like results for `Cc1cc(S(=O)(=O)N2CCCC2c2noc(COc3ccc(F)cc3)n2)ccc1F` (stereo not given) were, in that order, -6.17%, -2.42%, -0.268%, -5.56% and 10.3%.
Consider `CCOCC(=O)N1CCC(N2C(=O)C3(CCCCC3)C2c2ccccc2)CC1` (stereo not given), for which the activity change, negative = inhibition in test [1] is -0.608%; in test [2], 2.72%; in test [3], -0.674%; in test [4], -3.76%; in test [5], 4.78%.
Take `C=C1CC2[C@]3(C)C(=C(O)C(=O)[C@@]2(C)[C@]2(C(=O)OC)C(=O)C(C)OC(=O)[C@@]12C)C(C)(C)C(=O)CC3O` (stereo not given in full): the activity change, negative = inhibition in test [1] was 0%; in test [2], 5.48%; in test [3] it was 9.54%; in test [4] it was -7.89%; in test [5] it was 5.25%.
In the same order, the values of `O=C1CCN(C(=O)C2CCN(C(=O)c3ccc4ccccc4n3)CC2)CCCCCCN1` are -3.49%, -4.37%, -1.56%, -8.07% and 10.7%.
In the case of `CC(C)Oc1ccc(CNC(=O)c2cc3n(n2)CC(C)(C(=O)NCc2ccccc2)N(C)C3=O)cc1` (stereo not given), the activity change, negative = inhibition is -3.32% in test [1]; 1.68% in test [2]; -3.08% in test [3]; -1.16% in test [4]; -1.06% in test [5].
For the compound `CC1c2cccn2CCN1C(=O)Nc1ccccc1` (stereo not given), the activity change, negative = inhibition is -2.75% in test [1]; 0% in test [2]; 4.57% in test [3]; -5.41% in test [4]; 0.861% in test [5].
On to `COc1ccc([C@H]2OC[C@H]3O[C@@H](O[C@H]4[C@@H]2NC[C@@H]4O)[C@H](O)[C@H]3O)cc1`, for which the activity change, negative = inhibition in test [1] was 2.99%; in test [2], -0.955%; in test [3] it was 6.09%; in test [4], -8.07%; in test [5], 0.945%.
In the case of `COc1ccccc1CN1C(=O)c2cc3sccc3n2CC1(C)C(=O)NC1CCC(C)CC1` (stereo not given), the activity change, negative = inhibition in test [1] was -1.6%; in test [2], 2.02%; in test [3], -0.4%; in test [4], -3.63%; in test [5], -1.66%.
Take `CCCN1C(=O)c2c(C(=O)NCc3cc(OC)ccc3OC)ncn2CC1(C)C(=O)NCc1ccc(F)cc1` (stereo not given): the activity change, negative = inhibition in test [1] is 1.35%; in test [2], 0.628%; in test [3], 8.54%; in test [4] it was 9.3%; in test [5], 8.56%.
In the case of `CCC(C)C(=O)O[C@H]1CCC=C2C=C[C@H](C)[C@H](CC[C@@H](O)C[C@@H](O)CC(=O)O)[C@H]21` (stereo not given in full), the activity change, negative = inhibition was -0.028% in test [1]; 3.03% in test [2]; 10.1% in test [3]; -12% in test [4]; -5.2% in test [5].
In the same order, the values of `O=C(C1CCCC1)N1Cc2ccccc2CC2(CCCN(Cc3ccccc3)C2)C1` (stereo not given) are -6.17%, -7.56%, -7.93%, -15.3% and -6.75%.
Turning to `CN1CCN(Cc2ccc(CC3CCN(S(=O)(=O)c4cccc(F)c4)CC3)cc2)CC1`, the activity change, negative = inhibition in test [1] is -3.45%; in test [2] it was 0%; in test [3], -0.477%; in test [4] it was 0.691%; in test [5], -0.591%.
As for `O=C(CCCN1CCN(c2ccc(F)cc2)CC1)NC1c2ccccc2CSc2ccccc21` (stereo not given), the activity change, negative = inhibition is 0.654% in test [1]; 5.68% in test [2]; 2.98% in test [3]; -14.9% in test [4]; -5.39% in test [5].
Take `CC(C)CNC(=O)c1ccc2c(=O)n(C(C)C)c3nn(Cc4cccc(Cl)c4)c(=O)n3c2c1`: the activity change, negative = inhibition in test [1] is -3.58%; in test [2], 4.34%; in test [3], -0.794%; in test [4], -2.69%; in test [5] it was 0.714%.
As for `CCOCCCNC(=O)CCc1nnc2n(CCC(C)C)c(=O)c3ccccc3n12`, the activity change, negative = inhibition in test [1] is -4.07%; in test [2] it was 1.34%; in test [3], -3.18%; in test [4], -1.89%; in test [5] it was -6.78%.
`CC(C)CNC(=O)c1ccc2c(=O)n(C(C)C)c3n[nH]c(=O)n3c2c1`: the activity change, negative = inhibition in test [1] was -2.45%; in test [2], 0%; in test [3], -1.48%; in test [4], 0.832%; in test [5] it was -8.06%.
Take `CC(=O)Nc1c2n(c3ccc(F)cc13)CC(C)(C(=O)NC1CCCCC1)N(Cc1cccnc1)C2=O` (stereo not given): the activity change, negative = inhibition in test [1] was 0.889%; in test [2] it was -4.23%; in test [3] it was 7.74%; in test [4], -2.94%; in test [5], -1.89%.
Take `C/C(=C\CO)CC/C=C(\C)C(=O)O[C@H]1[C@H](OC2OC=C(C(=O)O)C3CCC(C)(O)C23)O[C@H](CO)[C@@H](O)[C@@H]1O` (stereo not given in full): the activity change, negative = inhibition in test [1] is 5.43%; in test [2], 5.43%; in test [3], 14.8%; in test [4], -5.92%; in test [5], 7.55%.
Turning to `COc1ccc(C2(C(=O)N3C[C@@H](Oc4cccnc4)C[C@H]3C(=O)NC3CC3)CC2)cc1`, the activity change, negative = inhibition in test [1] was 0.164%; in test [2], -0.359%; in test [3], -0.26%; in test [4], -0.998%; in test [5] it was -11.5%.
`CCOC(=O)c1cc2n(n1)CC(C)(C(=O)NCc1ccc(C)cc1)N(c1ccc(C)cc1C)C2=O` (stereo not given): the activity change, negative = inhibition in test [1] is 1.71%; in test [2], 2.72%; in test [3] it was -3.14%; in test [4], 0.475%; in test [5] it was 2.09%.
On to `CCOC(=O)c1cc2n(n1)CC(C)(C(=O)NC1CCCCCC1)N(Cc1cccc(OC)c1)C2=O` (stereo not given), for which the activity change, negative = inhibition in test [1] was -0.502%; in test [2], 2.96%; in test [3], -2.03%; in test [4] it was -10%; in test [5], -0.548%.
Take `CCN1CCC2(CCC1=O)CN(Cc1ccc(C)c3ccccc13)CCN2C` (stereo not given): the activity change, negative = inhibition in test [1] is -3.81%; in test [2], -1.09%; in test [3] it was -4.81%; in test [4], -9.77%; in test [5], -2.79%.
As for `CC(C)n1c(=O)c2ccc(C(=O)NC3CCCC3)cc2n2c(=O)n(Cc3ccccc3Cl)nc12`, the activity change, negative = inhibition in test [1] is 0.45%; in test [2], 3.55%; in test [3] it was 5.65%; in test [4], 2.43%; in test [5] it was 1.4%.

The record behind these values is PubChem BioAssay AID1745853 (National Center for Advancing Translational Sciences (NCATS), 2022).
